Measurements as given in PubChem BioAssay AID504333 (National Center for Advancing Translational Sciences (NCATS), 2011).
The whole screen tested about 360,000 compounds, of which about 16,000 (4.4%) were called active. Inconclusive means that the source gave no clear call. Such entries were picked first, then a sample of the others. Calls come from the whole dose curve; as a rule, active = well fitted inhibition curve with a large enough effect; inconclusive = small, poorly fitted or top-dose-only effect; inactive = no such curve, though single readings can be large or run the other way. Where the call is inconclusive, the potency comes from a doubtful curve fit.

Molecular target: Bromodomain adjacent to zinc finger domain protein 2B (Homo sapiens) (UniProt Q9UIF8)
UniProt Q9UIF8, sequence (Q9UIF8 whole entry, looked up, the tested form may be a part): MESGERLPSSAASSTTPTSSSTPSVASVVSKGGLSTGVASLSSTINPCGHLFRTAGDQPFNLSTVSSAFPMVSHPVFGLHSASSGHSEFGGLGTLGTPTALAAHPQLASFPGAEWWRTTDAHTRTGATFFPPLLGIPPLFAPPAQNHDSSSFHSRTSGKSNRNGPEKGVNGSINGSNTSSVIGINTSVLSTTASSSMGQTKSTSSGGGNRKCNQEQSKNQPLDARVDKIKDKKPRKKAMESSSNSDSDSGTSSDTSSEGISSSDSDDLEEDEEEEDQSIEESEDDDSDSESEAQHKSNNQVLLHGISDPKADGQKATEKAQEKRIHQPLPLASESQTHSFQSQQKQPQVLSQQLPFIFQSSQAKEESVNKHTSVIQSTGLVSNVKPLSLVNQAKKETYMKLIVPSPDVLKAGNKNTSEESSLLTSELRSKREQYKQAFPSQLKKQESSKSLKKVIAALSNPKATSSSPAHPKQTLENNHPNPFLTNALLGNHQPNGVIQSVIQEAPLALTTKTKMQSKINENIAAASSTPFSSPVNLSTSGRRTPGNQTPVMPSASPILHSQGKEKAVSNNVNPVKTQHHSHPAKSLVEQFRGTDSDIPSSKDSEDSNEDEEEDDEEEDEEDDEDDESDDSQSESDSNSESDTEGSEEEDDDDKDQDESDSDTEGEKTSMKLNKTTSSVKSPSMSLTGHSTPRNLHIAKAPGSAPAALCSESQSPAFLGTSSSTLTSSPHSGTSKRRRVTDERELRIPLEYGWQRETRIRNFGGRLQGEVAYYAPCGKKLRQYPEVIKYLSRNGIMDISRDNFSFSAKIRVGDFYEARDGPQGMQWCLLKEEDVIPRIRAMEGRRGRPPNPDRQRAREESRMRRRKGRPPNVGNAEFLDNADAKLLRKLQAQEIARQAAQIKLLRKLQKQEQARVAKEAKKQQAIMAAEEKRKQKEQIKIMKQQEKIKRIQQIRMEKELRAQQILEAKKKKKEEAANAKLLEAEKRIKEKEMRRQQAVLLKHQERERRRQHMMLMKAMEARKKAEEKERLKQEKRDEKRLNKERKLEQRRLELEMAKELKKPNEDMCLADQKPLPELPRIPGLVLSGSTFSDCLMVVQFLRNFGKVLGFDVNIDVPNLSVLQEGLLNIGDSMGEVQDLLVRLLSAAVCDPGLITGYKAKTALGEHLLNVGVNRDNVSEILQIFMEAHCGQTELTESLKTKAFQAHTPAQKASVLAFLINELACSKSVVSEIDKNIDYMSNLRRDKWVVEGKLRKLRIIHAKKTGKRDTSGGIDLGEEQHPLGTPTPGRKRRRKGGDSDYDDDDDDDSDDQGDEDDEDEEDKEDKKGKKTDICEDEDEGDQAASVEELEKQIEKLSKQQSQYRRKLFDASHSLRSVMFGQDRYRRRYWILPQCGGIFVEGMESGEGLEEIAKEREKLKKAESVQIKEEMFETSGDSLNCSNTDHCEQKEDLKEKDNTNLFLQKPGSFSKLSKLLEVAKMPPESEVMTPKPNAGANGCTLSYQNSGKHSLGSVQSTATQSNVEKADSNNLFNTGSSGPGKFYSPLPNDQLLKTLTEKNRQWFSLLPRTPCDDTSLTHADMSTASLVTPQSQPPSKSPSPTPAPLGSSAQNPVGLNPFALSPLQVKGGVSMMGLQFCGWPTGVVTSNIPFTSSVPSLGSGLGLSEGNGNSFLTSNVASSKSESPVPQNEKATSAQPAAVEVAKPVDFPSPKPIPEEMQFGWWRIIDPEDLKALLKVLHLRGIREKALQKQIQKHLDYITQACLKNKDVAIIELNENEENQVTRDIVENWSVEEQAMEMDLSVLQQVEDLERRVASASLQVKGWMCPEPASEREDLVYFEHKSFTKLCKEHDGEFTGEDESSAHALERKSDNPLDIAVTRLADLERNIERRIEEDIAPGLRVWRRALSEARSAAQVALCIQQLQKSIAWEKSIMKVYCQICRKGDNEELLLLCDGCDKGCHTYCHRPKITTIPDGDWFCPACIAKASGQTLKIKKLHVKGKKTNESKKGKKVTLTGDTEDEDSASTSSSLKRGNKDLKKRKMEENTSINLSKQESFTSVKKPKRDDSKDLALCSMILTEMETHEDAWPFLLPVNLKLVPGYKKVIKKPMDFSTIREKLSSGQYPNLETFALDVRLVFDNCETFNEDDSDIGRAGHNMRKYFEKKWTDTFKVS
Assay: qHTS Assay for Inhibitors of BAZ2B; note: nearly all actives have a fitted effect of over 60% in size
Conditions: AlphaScreen BAZ2B-H3K14Ac peptide displacement; activity change, negative = inhibition: at 114 µM (top of the series)
Procedure, shortened: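 AlphaScreen displacement of biotin-H3(5-23)K14Ac peptide (50 nM final) from BAZ2B (50 nM final) in PBS pH 7.4, 0.01% Tween-20; complex preformed 30 min RT, then compounds (top 110 uM) 30 min RT, beads 20 min dark.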
% is set by controls: 0 for no effect and ±100 for the full control effect; potency is the fitted concentration of half-maximal effect; tags give direction and shape of the fitted curve.

| Compound | activity change, negative = inhibition | Potency |
| --- | --- | --- |
| O=C1NC(c2ccccc2)=N/C1=C/c1ccco1 | inactive: -4% |  |
| CCN(CC)CCNc1nc(-c2cccs2)c(CC(=O)O)s1 |  | active: 20 µM |
| FC(F)(F)c1ccc(C2Nc3cccc4cccc(c34)N2)cc1 |  | active: 39.8 µM |
| Cc1cccc2sc(N(CCN3CCOCC3)C(=O)CCS(=O)(=O)c3ccccc3)nc12 | inactive: -0.118% |  |
| COc1ccc(-c2csc(Nc3ccccn3)n2)cc1OC |  | active: 44.7 µM |
| COC(=O)C1=C(C)N(CC(C)C)C(=O)/C1=C\c1cccs1 |  | active: 50.1 µM |
| CC(=O)Nc1ccc2nc(-c3ccccn3)[nH]c2c1 | inconclusive: -108% [inhibitor] |  |
| Cc1ccc(S(=O)(=O)Nc2c(Cl)c(Cl)c(O)c3ccccc23)cc1 |  | active: 44.7 µM |
| CCOC(=O)c1ccc(NC(=O)CSc2c(C(C)C)cnc3c2c(=O)n(C)c(=O)n3C)cc1 |  | inconclusive: 39.8 µM [inhibitor, single point] |
| C/C(=N\Nc1ccc(Cl)cc1)c1ccccn1 |  | inconclusive: 89.1 µM [inhibitor, single point] |
| O=C1/C(=C/c2cccnc2)Oc2cc(OS(=O)(=O)c3ccc(Cl)cc3)ccc21 |  | inconclusive: 89.1 µM [inhibitor, single point] |
| O=C1OC(c2cccc([N+](=O)[O-])c2)C2(CCCC2)C(=O)C12CCCCC2 (stereo not given) |  | inconclusive: 39.8 µM [inhibitor, partial curve] |
| CCOc1ccc2c(c1)c(=O)c(C(=O)c1ccccc1)cn2Cc1ccccc1 | inactive: -26% |  |
| COc1ccc(OC)c(NC(=O)NNC(=O)c2cc3occc3[nH]2)c1 |  | inconclusive: 12.6 µM [inhibitor, partial curve] |
| CSC1=C(C#N)C(c2cccs2)CC(=O)N1C (stereo not given) | inactive: -1.74% |  |
| S=C(NCCc1c[nH]c2ccccc12)NC1CCCCC1 |  | inconclusive: 50.1 µM [inhibitor, partial curve] |
| COc1ccc(CCNCc2c(C(=O)O)c(C)n(Cc3c(F)cccc3Cl)c2C)cc1OC |  | inconclusive: 70.8 µM [inhibitor, single point] |
| COC(=O)Cn1c2c(c3cc(C)ccc31)CCCC2 | inactive: -62.8% |  |
| Cc1ccc(C(=O)NCCCn2ccnc2)cn1 |  | active: 50.1 µM |
| CCOc1cccc2cc(C(=O)NC(C)c3ccccc3)c(=N)oc12 (stereo not given) | inactive: -12% |  |
| O=C(COC(=O)CSc1ccc([N+](=O)[O-])cc1)NCCCc1ccccc1 |  | inconclusive: 35.5 µM [inhibitor, partial curve] |
| O=C(Nc1ccccc1C(=O)Nc1ccccn1)c1ccc([N+](=O)[O-])cc1 |  | inconclusive: 89.1 µM [inhibitor, single point] |
| O=C(Nc1ccccc1)c1ccc(-c2ccc(Br)cc2)o1 |  | inconclusive: 39.8 µM [inhibitor, partial curve] |
| CN(C(=O)COC(=O)c1ccc2c(c1)NC(=O)CS2)C1CCS(=O)(=O)C1 (stereo not given) | inactive: 5.94% |  |
| Cc1cc(C)cc(OCC(=O)NNC(=O)c2ccccn2)c1 |  | inconclusive: 89.1 µM [inhibitor, single point] |

| Compound | activity change, negative = inhibition | Potency |
| --- | --- | --- |
| c1ccc(-c2oc3ncnc(NCCN4CCOCC4)c3c2-c2ccccc2)cc1 |  | inconclusive: 89.1 µM [inhibitor, single point] |
| Cc1cc(OCCn2ccnc2)cc(C(C)C)c1 |  | active: 28.2 µM |
| CCN1/C(=C/C(=O)c2ccco2)Sc2ccccc21 |  | inconclusive: 79.4 µM [inhibitor, single point] |
| COc1ccc(-c2noc(CSc3nnc(-c4ccccc4)n3-c3ccc(F)cc3)n2)c(OC)c1 | inactive: 5.95% |  |
| COc1ccc(CNC(=O)CCn2cccc2)cc1 |  | inconclusive: 70.8 µM [inhibitor, single point] |
| C/C(=N\NC(=O)c1ccc(O)cc1)c1ccc2c(c1)Nc1ccccc1S2 |  | active: 50.1 µM |
| Cc1ccc2nc(-c3ccccc3C)oc(=O)c2c1 |  | inconclusive: 89.1 µM [inhibitor, single point] |
| O=C(CCCc1ccccc1)N1CCc2ccccc21 | inactive: 34% |  |
| CCNc1nc(C(=O)O)nc(N2CCOCC2)n1 |  | active: 8.91 µM |
| Cc1ccc([N+](=O)[O-])cc1-c1ccc(/C=C(\C#N)c2[nH]nc(N)c2C#N)o1 |  | inconclusive: 89.1 µM [inhibitor, single point] |
| C=CCOc1ccc(C2NC(=S)NC(c3ccccc3)=C2C(C)=O)cc1OC (stereo not given) |  | inconclusive: 79.4 µM [inhibitor, single point] |
| COc1ccc(-c2cc(OC(=O)c3ccc(F)cc3)c3c(C)oc(C)c3c(=O)c2)cc1OC |  | inconclusive: 12.6 µM [inhibitor, partial curve] |
| Cc1ccc(C)c(N2CCN(CCCNC(=O)CCC(=O)N3CCOc4ccc(Cl)cc43)CC2)c1 |  | inconclusive: 70.8 µM [inhibitor, single point] |
| O=C(OC(c1ccccc1)c1nccc2ccccc12)c1cc([N+](=O)[O-])cc([N+](=O)[O-])c1 (stereo not given) |  | inconclusive: 10 µM [inhibitor, full curve] |
| CC(=O)c1c(N2CCN(c3ccc(F)cc3)CC2)nc(=S)n(Cc2ccccc2)c1C |  | inconclusive: 39.8 µM [inhibitor, full curve, poor fit] |
| CCCC(=O)Nc1cc(C(=O)NCc2ccc(OC)cc2)ccc1S(=O)(=O)c1ccc(Cl)cc1 | inactive: 7.79% |  |
| COC(=O)c1c(SCC(=O)Nc2ccc(C)cc2)nc(=O)[nH]c1C |  | inconclusive: 79.4 µM [inhibitor, single point] |
| Nn1cnnc1N/N=C/c1cccc(Cl)c1Cl |  | inconclusive: 79.4 µM [inhibitor, single point] |
| Cc1cccc(OCC(=O)NNS(=O)(=O)c2ccccc2F)c1 | inactive: 3.5% |  |
| O=C(NCC1CCCO1)c1cc(S(=O)(=O)N2CCCCC2)ccc1Cl (stereo not given) |  | active: 56.2 µM |
| Cc1ccc(CNC(=O)Cn2c(=O)n(-c3ccc(C)c(F)c3)c(=O)c3sc4ccccc4c32)cc1 |  | inconclusive: 89.1 µM [inhibitor, single point] |
| COc1ccc(Cn2ccnc2SCC(=O)Nc2cccc(NC(C)=O)c2)cc1 |  | inconclusive: 79.4 µM [inhibitor, single point] |
| CCOC(=O)c1c(C)c(-c2ccccc2)n(CC(=O)Nc2cccc(F)c2)c1C | inactive: -5.89% |  |
| O=C1CCN(CCc2ccccc2)CCN1[C@H](COc1ccccc1)c1ccccc1 |  | inconclusive: 39.8 µM [inhibitor, partial curve] |
| O=C(CC1Oc2ccc(Cl)cc2NC1=O)NC1CCCCCC1 (stereo not given) | inactive: 9.59% |  |

| Compound | activity change, negative = inhibition | Potency |
| --- | --- | --- |
| Cc1nc2ccccc2n1CCN1CCOCC1 |  | inconclusive: 89.1 µM [inhibitor, single point] |
| COc1cccc2c1[C@@H]1CN(CCCCn3c(=O)[nH]c4c(sc5ncc(-c6ccccc6)nc54)c3=O)C[C@@H]1CO2 |  | inconclusive: 35.5 µM [inhibitor, full curve] |
| O=C(CCNC(=O)c1ccc(Cl)cc1)NCC(c1ccco1)N1CCCC1 (stereo not given) | inactive: -4.62% |  |
| CCCNC(=O)Nc1cc(OCC)c(N2CCOCC2)cc1OCC | inactive: 8.44% |  |
| CCCn1nnnc1NCc1ccccc1C |  | inconclusive: 89.1 µM [inhibitor, single point] |
| COc1cc(Nc2nc(SCc3cccc(Cl)c3)nc3ccccc23)cc(OC)c1 | inactive: 9.54% |  |
| CCOC(=O)/C(=N/Nc1ccc(OC)cc1)N1CCCc2ccccc21 |  | active: 28.2 µM |
| CC1(CCc2ccccc2)NC(=S)N(c2ccc(Cl)cc2)N1 (stereo not given) |  | active: 79.4 µM |
| Cc1cccc(/C=N/Nc2cc(N3CCOCC3)nc(N3CCOCC3)n2)c1 |  | inconclusive: 89.1 µM [inhibitor, single point] |
| O=C(O)CSc1nnc(CNc2ccccc2Cl)n1-c1ccccc1 |  | inconclusive: 89.1 µM [inhibitor, single point] |
| O=C(c1cc2nc(-c3ccco3)cc(C(F)(F)F)n2n1)N1CCN(Cc2ccccc2)CC1 | inactive: -9.22% |  |
| Cc1ccc(-c2csc(NC(=O)/C=C/c3ccco3)c2C(=O)O)cc1 |  | active: 79.4 µM |
| O=C(NCc1ccccc1F)C1CCN(Cc2cc3ccccc3n2Cc2cccc(Cl)c2)CC1 | inactive: -19.1% |  |
| CCOc1ccccc1N1CCN(C(=O)c2c(C)noc2C)CC1 | inactive: -0.656% |  |
| Cc1cccn2c(=O)c(/C=C(\C#N)c3nc4ccccc4s3)c(Oc3ccc(Br)cc3)nc12 | inactive: 1.62% |  |
| COc1ccc(CCNC(=O)/C=C/C(=O)O)cc1 |  | inconclusive: 89.1 µM [inhibitor, single point] |
| O=C1C=C(NCc2ccc(Cl)cc2)CC(c2ccco2)C1 (stereo not given) |  | active: 50.1 µM |
| COc1cccc(/C=N/c2oc(-c3ccccc3)cc2C#N)c1O |  | inconclusive: 44.7 µM [inhibitor, partial curve] |
| Cc1[nH]c2ccccc2c1C(C[N+](=O)[O-])c1cccs1 (stereo not given) |  | inconclusive: 39.8 µM [inhibitor, partial curve] |
| C/C(=N\Nc1cccc2cccnc12)c1ccccn1 |  | inconclusive: 50.1 µM [inhibitor, partial curve, poor fit] |
| C/C(CCc1oc2ccc(Cl)cc2c1-c1ccc(C)o1)=N\O |  | inconclusive: 31.6 µM [inhibitor, partial curve] |
| Cc1cc(C(=O)CN2C(=O)NC3(CCCCC3)C2=O)c(C)n1Cc1ccc2c(c1)OCO2 |  | inconclusive: 31.6 µM [inhibitor, full curve, poor fit] |
| COc1ccc(NC(=O)CC2CC3CCC2C3)cn1 (stereo not given) | inactive: -2.01% |  |
| Cc1ccc(S(=O)(=O)c2nc(NCCN(C)C)sc2Cl)cc1 | inactive: 2.17% |  |
| COC(=O)CC1=C(C(=O)OC)C(c2ccc3c(c2)OCO3)C(C#N)=C(N)O1 (stereo not given) |  | inconclusive: 79.4 µM [inhibitor, single point] |
